In all, about 16,000 sequences were measured (“Z-score”: median about -0.37, highest 2% from about 3.2 on). The list shows a part of the results.
tested on: RBM10 RRM1-ZnF (GST-tagged construct); assay: RNAcompete 7-mer binding Z-score; higher = stronger binding preference
In short: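 Each heptamer motif was given a one-sided Z-score for enrichment across the probes that contained it. GST-tagged RBM10 constructs (20 pmol) were combined with 1.5 nmol of a designed pool of 241 399 RNAs of up to 41 nt, transcribed from microarray-derived DNA templates. Binding took place in 1 ml Hepes pH 7.8 buffer containing KCl, NaCl, glycerol, DTT, BSA and glutathione Sepharose beads for 30 min at 4°C. After four 2-min washes at 4°C, bound RNA was identified by microarray hybridisation.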

| Sequence | RNAcompete 7-mer binding Z-score |
| --- | --- |
| GGUAACU | 0.582 |
| CUUCUGA | -0.75 |
| CUGAAUA | -0.506 |
| CACAGGG | 2.18 |
| AUCGAUA | -0.334 |
| CCGUGCC | -0.532 |
| UCAUCGC | -0.61 |
| AUUGCGG | 0.556 |
| AUAUAGC | -0.357 |
| UUACGUA | -0.568 |
| CGCUGCU | -0.509 |
| CUUUGUA | -0.909 |
| CAUAUCU | -0.675 |
| CGCGCUA | -0.509 |
| GUGUUCU | -0.584 |
| UGUGACC | -0.149 |
| UGGGAAU | 2.53 |
| ACAGCAA | -0.272 |
| GAUUCCG | -0.675 |
| AGCGUUG | 0.179 |
| CGGUCUC | -0.574 |
| UCGUCAU | -0.685 |
| CGUUUUC | -0.717 |

| Sequence | RNAcompete 7-mer binding Z-score |
| --- | --- |
| UCUCAUU | -0.85 |
| GUCGGCA | -0.0609 |
| CAAGUAG | 0.264 |
| CACAGUU | -0.642 |
| UAGAUCA | -0.00571 |
| ACUGAUG | 0.0203 |
| CGCUGUC | -0.613 |
| UACUUUU | -0.867 |
| AAAGUUG | 0.248 |
| UGAAGCU | -0.262 |
| UAGCCGG | -0.288 |
| AUUAGUG | 0.42 |
| GGGAAUC | 1.58 |
| CGACGGG | 1.62 |
| AAUCAUU | -0.665 |
| UCAGCUA | -0.607 |
| CGUUAUU | -0.561 |
| ACGCCCG | -0.591 |
| UCCCUCA | -0.701 |
| CAGUUAU | -0.626 |
| UCGAGGG | 1.95 |
| AUUGGAU | 0.904 |
| CAUAUCG | -0.629 |

| Sequence | RNAcompete 7-mer binding Z-score |
| --- | --- |
| GGGGCUG | 2.75 |
| CCACUAA | -0.805 |
| AAGGUUG | 3.49 |
| GCGACCC | -0.545 |
| GCCGCGA | -0.422 |
| AACAUUU | -0.646 |
| CGAUCAU | -0.581 |
| CGACUAU | -0.617 |
| GCUGGUC | 0.105 |
| GACCGGG | 1.26 |
| ACGCUGA | -0.431 |
| GCUACAA | -0.422 |
| GCCCACA | -0.454 |
| UUAGCCC | -0.707 |
| GUUGUCG | -0.171 |
| CUUGAUA | -0.73 |
| UCGUGGA | 0.8 |
| GGAACAG | 2.02 |
| CAUUAUU | -0.798 |
| UACCUGA | -0.662 |
| GUCAUAC | -0.35 |
| AUAAACA | -0.48 |
| CCACUAG | -0.519 |

| Sequence | RNAcompete 7-mer binding Z-score |
| --- | --- |
| AACGACU | -0.457 |
| GCGAGUU | -0.152 |
| CCUUUAC | -0.912 |
| UGCAUCA | -0.522 |
| AUUCCAC | -0.818 |
| UAUAUAU | -0.366 |
| GAACAUC | -0.587 |
| AAUUCUU | -0.798 |
| UAAGAGG | 1.28 |
| CAUAUCA | -0.678 |
| UAUUAGG | 0.602 |
| GCAAACG | 0.03 |
| ACAAGGA | 1.78 |
| CUAGAAC | -0.357 |
| UGCCAUG | -0.496 |
| ACCUAUC | -0.928 |
| CUCAAAG | -0.418 |
| UGAGACG | 0.579 |
| GGGUUCU | 0.998 |
| AAUUCGC | -0.561 |
| CUCCGCC | -0.451 |
| GCUGAGA | 0.118 |
| GGGCCGC | 0.29 |

| Sequence | RNAcompete 7-mer binding Z-score |
| --- | --- |
| UGGCGCA | 0.439 |
| AGAACGU | -0.383 |
| UGUUCGU | -0.464 |
| UAUAACA | -0.389 |
| AAAGACC | -0.672 |
| AGGCGUG | 0.833 |
| ACUGAUA | -0.353 |
| UUAAUUG | -0.477 |
| UAGAUAG | 0.361 |
| UAACCAA | -0.542 |
| GGUUCCG | 0.199 |
| GCUAAUC | -0.526 |
| GUGGACU | 1.24 |
| UAGUAAG | 0.404 |
| AGCUAUU | -0.629 |
| GAGUCCA | -0.376 |
| AUUUAUG | -0.23 |
| AUCAAUU | -0.665 |
| GAUGAGU | 1.06 |
| UCCCGUC | -0.659 |
| GCCUCGU | -0.568 |
| CACGGCG | -0.129 |
| UCCCUAA | -0.691 |

| Sequence | RNAcompete 7-mer binding Z-score |
| --- | --- |
| AGUGAGA | 1.13 |
| CCUUGUU | -0.86 |
| GGUGUGG | 4.32 |
| GAACGGA | 2.03 |
| CACUCUG | -0.733 |
| CUCGACU | -0.802 |
| UUUAGGU | 0.397 |
| GGAUAUU | 1.16 |
| CGCGGAA | 0.553 |
| AAUGGGG | 4.2 |
| AUGCUCA | -0.571 |
| AGGACUU | -0.262 |
| UCACCGG | -0.136 |
| AAAAAAG | -0.0479 |
| GGUGACG | 2.1 |
| AGUAACG | 0.293 |
| UGCACCU | -0.581 |
| GUAGGGA | 3.87 |
| GCGCAGU | -0.00246 |
| GUCGCGC | -0.249 |
| GCUACCG | -0.324 |
| GGCGUUA | 0.28 |
| AAGUCGC | -0.266 |

| Sequence | RNAcompete 7-mer binding Z-score |
| --- | --- |
| GCGGUUU | 0.959 |
| CGAGGUA | 1.57 |
| UAUCGAA | -0.389 |
| AUGACAA | -0.103 |
| GGGUCCA | 0.751 |
| UGUUAAU | -0.613 |
| UAGCCAG | -0.259 |
| CGGGUGG | 3.64 |
| CUAUCAU | -0.532 |
| ACUCACG | -0.503 |
| CAGGGAC | 1.49 |
| UCCACAA | -0.678 |
| GGACGCC | 0.0138 |
| UGACUGG | 1.43 |
| ACCUGAU | -0.863 |
| AUAUCGG | 0.183 |
| GUUUCAG | -0.116 |
| ACAAGUC | -0.591 |
| AGUGCAU | -0.0772 |
| UCAAGUC | -0.516 |
| UUGGCUC | -0.516 |
| CGAGCUA | -0.0252 |
| UUGAAAC | -0.587 |

| Sequence | RNAcompete 7-mer binding Z-score |
| --- | --- |
| CGGAGCG | 1.23 |
| AUUGGGA | 2.83 |
| GCGUAAA | 0.095 |
| UUAUACU | -0.701 |
| GGGAUGA | 4.17 |
| UAGUGCA | 0.296 |
| GUAGUAU | -0.129 |
| UUUUAUC | -0.873 |
| UCUGGGA | 0.508 |
| AUGACGC | -0.383 |
| ACUUAGU | -0.435 |
| CGGUCCC | -0.253 |
| UUCUUUG | -0.659 |
| AAGAUGU | 0.303 |
| ACAUGAA | -0.0317 |
| UCGCGCC | -0.711 |
| CUCUGCG | -0.772 |
| GGAUUUG | 1.18 |
| CUGGUGU | 0.628 |
| CUUCCAG | -0.675 |
| CUUACAC | -0.841 |
| GCCAGAU | -0.467 |
| UCCACCG | -0.503 |
